The campaign covered roughly 39,000 compounds. About 220 (0.56%) showed activity. The list shows a part of the results.
Test system: Escherichia coli K-12 BW25113
Test: relative growth (OD600 normalised to plate interquartile mean) (fraction); higher = less growth inhibition, active = 0.2 or less
Settings: 50 µM; LB; incubation time: overnight (16-24 h)
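Note: static incubation at 37 °C against the wild-type strain, values averaged over two biological replicates.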

| Compound | relative growth |
| --- | --- |
| C[C@H]1CN([C@@H](C)CO)S(=O)(=O)c2ccc(-c3ccncc3)cc2O[C@@H]1CN(C)S(=O)(=O)c1ccccc1F | inactive: 1.01 |
| COc1ccc(CN(C)C[C@H]2OCCCC[C@H](C)Oc3ccc(NC(=O)Cc4ccccc4)cc3C(=O)N([C@@H](C)CO)C[C@H]2C)cc1 | inactive: 1.01 |
| C[C@H]1CN([C@@H](C)CO)C(=O)c2cc(NC(=O)CCC(F)(F)F)ccc2O[C@@H]1CN(C)Cc1ccc(-c2ccccc2)cc1 | inactive: 0.965 |
| Nc1nc(=O)c2c(CCc3ccc(C(=O)NC(CCC(=O)[O-])C(=O)[O-])cc3)c[nH]c2[nH]1.[Na+].[Na+] (stereo not drawn) | inactive: 1.13 |
| C[C@H]1CN([C@@H](C)CO)C(=O)c2cccc(NC(=O)C3CCOCC3)c2O[C@H]1CN(C)S(=O)(=O)c1ccccc1 | inactive: 0.978 |
| C[C@@H]1CN([C@@H](C)CO)C(=O)c2ccccc2-c2ccccc2CO[C@H]1CN(C)C(=O)Nc1ccc(F)cc1 | inactive: 1.01 |
| COc1ccc(S(=O)(=O)N(C)C[C@H]2OCCCC[C@@H](C)Oc3ccc(NS(=O)(=O)c4ccc(Cl)cc4)cc3C(=O)N([C@H](C)CO)C[C@@H]2C)cc1 | inactive: 1.01 |
| COc1ccc(S(=O)(=O)Nc2ccc3c(c2)C(=O)N([C@H](C)CO)C[C@@H](C)[C@@H](CN(C)CC2CC2)O3)cc1 | inactive: 0.979 |
| Cn1c(=O)n2n(c1=O)[C@H](C1CC1)C=C1CN3[C@@H]([C@H](CCn4cc(-c5ccc(C(=O)NO)cc5)nn4)OC(=O)[C@@H]3Cc3ccccc3)[C@@H]12 | inactive: 1.02 |
| C[C@@H]1CN([C@@H](C)CO)C(=O)Cc2cc(NC(=O)Nc3ccccc3)ccc2O[C@H]1CN(C)Cc1ccc(Oc2ccccc2)cc1 | inactive: 1.03 |
| C[C@H](CO)N1C[C@H](C)[C@H](CN(C)C(=O)Nc2ccc3c(c2)OCO3)OCCCC[C@H](C)Oc2ccc(NC(=O)Nc3cccc4ccccc34)cc2C1=O | inactive: 1.05 |
| CC(=O)OCC(=O)C1(O)CCC2C3CCC4=CC(=O)C=CC4(C)C3C(O)CC21C (stereo not drawn) | inactive: 1.02 |
| Cc1ccc(S(=O)(=O)N(C)C[C@H]2Oc3ccc(NC(=O)CCCN(C)C)cc3CC(=O)N([C@@H](C)CO)C[C@@H]2C)cc1 | inactive: 1 |
| C[C@H]1CN([C@@H](C)CO)C(=O)c2c(c3ccccc3n2C)-c2ccccc2CO[C@@H]1CN(C)S(C)(=O)=O | inactive: 1.02 |
| O=C(C[C@H]1CC[C@H]2[C@@H](COC[C@H](O)CN2C(=O)c2ccc3c(c2)OCO3)O1)NCCN1CCCC1 | inactive: 1.01 |
| C[C@@H]1CN([C@H](C)CO)C(=O)c2cc(NC(=O)C3CCCCC3)ccc2O[C@@H](C)CCCCO[C@H]1CN(C)C(=O)Nc1cccc2ccccc12 | inactive: 1.01 |
| Cc1ccc(S(=O)(=O)Nc2ccc3c(c2)C(=O)N([C@@H](C)CO)C[C@H](C)[C@@H](CN(C)C(=O)NC2CCCCC2)OCCCC[C@H](C)O3)cc1 | inactive: 1 |
| Cc1noc(C)c1S(=O)(=O)N(C)C[C@@H]1Oc2ccc(NS(C)(=O)=O)cc2C(=O)N([C@@H](C)CO)C[C@@H]1C | inactive: 0.999 |
| C=c1[nH]/c(=C\c2ccc(F)cc2)c(=O)o1 | inactive: 1.03 |

| Compound | relative growth |
| --- | --- |
| CCNC(=O)C[C@H]1CC[C@H](NC(=O)C2CCOCC2)[C@@H](CO)O1 | inactive: 0.995 |
| COCCNC(=O)C[C@H]1C[C@@H]2c3cc(NC(=O)CN(C)C)ccc3O[C@@H]2[C@H](CO)O1 | inactive: 1.03 |
| C[C@@H]1CCCCO[C@@H](CN(C)C(=O)NC2CCCCC2)[C@H](C)CN([C@H](C)CO)C(=O)c2cc(NC(=O)c3ccccc3)ccc2O1 | inactive: 0.972 |
| CN1CCN(C(=O)C[C@H]2CC[C@H]3[C@H](COc4ccc(NC(=O)C5CCOCC5)cc4C(=O)N3C)O2)CC1 | inactive: 0.985 |
| CC(=O)Oc1ccn(C)c(=O)c1C#N | inactive: 1 |
| Cc1ccc(S(=O)(=O)N(C)C[C@H]2Oc3ccc(NS(=O)(=O)c4ccccc4)cc3C(=O)N([C@@H](C)CO)C[C@H]2C)cc1 | inactive: 1.02 |
| C[C@H](CO)N1C[C@H](C)[C@H](CN(C)Cc2ccc(C(=O)Nc3ccccc3N)cc2)Oc2ccc(NC(=O)Nc3ccc(C(F)(F)F)cc3)cc2C1=O | inactive: 0.986 |
| CC(C=CC1=C(C)CCCC1(C)C)=CC=CC(C)=CCO | inactive: 0.993 |
| Cc1ccc(S(=O)(=O)N(C)C[C@H]2OCCCC[C@H](C)Oc3ccc(NC(=O)Nc4cccc5ccccc45)cc3C(=O)N([C@@H](C)CO)C[C@H]2C)cc1 | inactive: 1.03 |
| COc1cccc(-c2ccc3c(c2)O[C@H](CN(C)Cc2cncnc2)[C@H](C)CN([C@H](C)CO)S3(=O)=O)c1 | inactive: 1 |
| CCCNC(=O)N1C[C@H](O)COC[C@@H]2O[C@@H](CC(=O)N3CCOCC3)CC[C@H]21 | inactive: 0.995 |
| C[C@H](CO)N1C[C@H](C)[C@@H](CN(C)Cc2ccc(-c3ccccc3)cc2)Oc2ccc(NS(=O)(=O)c3ccccc3)cc2C1=O | inactive: 0.838 |
| Cc1ccc(S(=O)(=O)NCC[C@@H]2CC[C@@H](NS(=O)(=O)c3ccccc3Cl)[C@H](CO)O2)cc1 | inactive: 1 |
| Cc1noc(C)c1NC(=O)N(C)C[C@@H]1OCCCC[C@H](C)Oc2ccc(NC(=O)c3ccccc3)cc2C(=O)N([C@@H](C)CO)C[C@@H]1C | inactive: 0.954 |
| C[C@@H]1CCCCO[C@H](CN(C)C(=O)C2CCCCC2)[C@H](C)CN([C@H](C)CO)C(=O)c2cc(NS(=O)(=O)c3cccs3)ccc2O1 | inactive: 1.01 |
| NCC[C@@H](Cc1ccccc1)c1ccc2c(c1)OCO2 | inactive: 1.04 |
| CN(C)C(=O)C[C@@H]1CC[C@H]2[C@@H](COC[C@@H](O)CN2S(=O)(=O)c2ccccc2)O1 | inactive: 0.994 |
| COc1ccc(S(=O)(=O)N(C)C[C@H]2Oc3cc(C4=CCCC4)ccc3S(=O)(=O)N([C@@H](C)CO)C[C@H]2C)cc1 | inactive: 1.02 |
| COc1ccc(NC(=O)Nc2ccc3c(c2)[C@H]2C[C@@H](CC(=O)NCC(F)(F)F)O[C@@H](CO)[C@H]2O3)cc1 | inactive: 0.963 |
